# Among all 91,000 compounds or so, about 130 (0.14%) were called active. The inconclusive results got no clear call from the source; some entries with a clear call stand among them for comparison. Calls come from the whole dose curve; as a rule, active = well fitted inhibition curve with a large enough effect; inconclusive = small, poorly fitted or top-dose-only effect; inactive = flat fitted curve, though single readings scatter. Potencies beside an inconclusive call are fits to weak or partial responses and may not hold up.
# System: Uracil-DNA glycosylase
# Experiment: Primary qHTS assay for inhibitors of Activation Induced Cytidine Deaminase (AID): UDG Counterscreen signal; note: nearly all actives have a fitted effect of over 65% in size
# Conditions: FRET deamination/UDG coupled assay, UDG read, 4 h; activity change, negative = inhibition: at 115 µM (top of the series)
# % is set by controls: 0 for no effect and ±100 for the full control effect; potency is the fitted concentration of half-maximal effect; tags give direction and shape of the fitted curve.
Structure (SMILES),"activity change, negative = inhibition",Potency
Fc1ccc(CNC(=S)NCc2ccc(Cl)c(Cl)c2)cc1,inactive: -11.2%,–
CN1C(=O)Cc2cc(S(=O)(=O)CCC(=O)Nc3ccc(Cl)c(C(F)(F)F)c3)ccc21,–,"inconclusive: 79.4 µM [inhibitor, partial curve]"
Cc1ccccc1-c1nc2ccc(NC(=O)C3CC3)cc2o1,inactive: 6.27%,–
c1ccc(OCCN2CCC(c3nc4ccccc4s3)CC2)cc1,inactive: -2.72%,–
O=C(C1CCN(S(=O)(=O)c2cccs2)CC1)N1CCN(c2ccccc2F)CC1,–,"inconclusive: 89.1 µM [inhibitor, partial curve, poor fit]"
CNC(=S)N/N=C/c1cccc(Cl)c1,inactive: -6.89%,–
Cc1cccc(-n2c3nc(=O)[nH]c(=O)c-3cc3ccc(Cl)cc32)c1C,–,"inconclusive: 89.1 µM [inhibitor, single point]"
CC(C)CCNC(=S)NCc1ccco1,inactive: 4.67%,–
CC(C)CCCC(C)CC1C(C#N)=C(N)SC(N)=C1C#N (stereo not drawn),inactive: 8.99%,–
O=C(CCS(=O)(=O)c1ccc(Br)s1)Nc1cc(C(F)(F)F)cc(C(F)(F)F)c1,–,"inconclusive: 89.1 µM [inhibitor, partial curve, poor fit]"
CCOc1ccccc1NC(=O)CSc1ncc2c(n1)-c1ccccc1N(CC)S2(=O)=O,–,"inconclusive: 50.1 µM [inhibitor, partial curve, poor fit]"
CC1=C(c2ccc(C)cc2)S(=O)(=O)NC1=NCc1ccccc1Cl,–,"inconclusive: 79.4 µM [inhibitor, single point]"
CCc1ccccc1NC(=O)COCc1cc(-c2ccco2)on1,–,"inconclusive: 89.1 µM [inhibitor, single point]"
COc1ccccc1S(=O)(=O)Cc1ccc(C(=O)N2CCN(c3cc(Cl)ccc3C)CC2)o1,–,active: 89.1 µM
Cc1ccccc1Nc1nn2c(=O)c3ccc(C(=O)NCCc4ccc(Cl)cc4)cc3nc2s1,–,"inconclusive: 31.6 µM [inhibitor, partial curve, poor fit]"
Cc1ccc2nc(Cl)c3cc(C(=O)N4CCCCC4C)sc3c2c1 (stereo not drawn),inactive: -4.41%,–
Cc1c(C)n(Cc2ccc(F)cc2)c2ccc(C(=O)NCc3ccco3)cc12,–,"inconclusive: 89.1 µM [inhibitor, single point]"
Cc1ccc(S(=O)(=O)Nc2cc3c(cc2NCc2ccccc2)n(C)c(=O)n3C)cc1,–,"inconclusive: 89.1 µM [inhibitor, single point]"
Cc1ccc(Cl)cc1N1CCN(C(=O)c2c(C)oc3ncnc(N4CCCCC4)c23)CC1,–,"inconclusive: 89.1 µM [inhibitor, single point]"
Cc1oc2ccc(O)c(CN3CCCC3)c2c1C(=O)Nc1ccc(C(C)C)cc1,inactive: 2.79%,–
C#CCOc1ccc(-c2nnc(Nc3ccc(NC(C)=O)cc3)c3ccccc23)cc1,–,"inconclusive: 89.1 µM [inhibitor, single point]"
CC(=O)c1cccc(NC(=O)C(CC(C)C)NS(=O)(=O)c2ccc3c(c2)CCN3C(C)=O)c1 (stereo not drawn),–,"inconclusive: 100 µM [inhibitor, single point]"
Cc1oc2ncn(C)c(=O)c2c1C(=O)NCCCN1CCCCC1C (stereo not drawn),–,"inconclusive: 89.1 µM [inhibitor, single point]"

Structure (SMILES),"activity change, negative = inhibition",Potency
COc1cc(OC)c(N(C)C(=O)c2cn(C3CCCC3)c(=O)c3c2c2ccccc2n3C)cc1Cl,–,"inconclusive: 89.1 µM [inhibitor, single point]"
CC(=O)c1ccc(SCC(=O)N(C2CCCC2)C2CCCC2)c(F)c1,inactive: -4.32%,–
CN(Cc1ccccc1)S(=O)(=O)c1ccc2[nH]c3c(c2c1)CCCCC3,–,"inconclusive: 3.16 µM [inhibitor, partial curve, poor fit]"
Cc1cc(C)cc(NC(=O)CSc2nc(=O)n(Cc3ccccn3)c3c2CCC3)c1,–,"inconclusive: 100 µM [inhibitor, single point]"
CC(C)CC(=O)Nc1cc(-c2ccccc2F)nn1-c1ccccc1,–,"inconclusive: 89.1 µM [inhibitor, partial curve, poor fit]"
Cc1ccc(C)c(NC(=O)C(c2ccccc2)N2CCC(c3nc(C4CC4)n[nH]3)CC2)c1 (stereo not drawn),inactive: 1.39%,–
CCOC(=O)C1=C(CN2CCN(c3ccc(OC)cc3)CC2)NC(=O)NC1c1ccc(Cl)cc1 (stereo not drawn),–,"inconclusive: 15.8 µM [inhibitor, full curve, poor fit]"
CN(C)S(=O)(=O)c1cccc(NC(=O)COc2ccc(Cl)cc2)c1,inactive: -0.186%,–
COc1cc(/C=C/C(=O)c2ccc(C3CCCCC3)cc2)cc(Br)c1O,inactive: 0.636%,–
CC(C)(C)OC(=O)N1CCC(c2c(C(=O)N3CCN(c4ccccn4)CC3)cnn2-c2ccccc2)CC1,–,"inconclusive: 89.1 µM [inhibitor, single point]"
Cc1ccc(NC(=O)Cn2c(=O)oc3cc(S(=O)(=O)N4CCCCC4)ccc32)c(Cl)c1,–,"inconclusive: 89.1 µM [inhibitor, single point]"
Cc1oc2ncn(CC(C)C)c(=O)c2c1C(=O)NCCc1ccccc1,–,"inconclusive: 89.1 µM [inhibitor, single point]"
CCc1nc2cccnc2n1-c1ccc(CC(=O)Nc2c(C)cccc2C)cc1,–,"inconclusive: 89.1 µM [inhibitor, single point]"
Cc1cc(C)n2c(Nc3ccc(C(C)C)cc3)c(-c3ccsc3)nc2n1,–,"inconclusive: 79.4 µM [inhibitor, partial curve, poor fit]"
CC1CN(CCCOc2ccc(C#N)cc2)CCO1 (stereo not drawn),inactive: 6.11%,–
N#Cc1cccc(C(=O)OCc2cccnc2)c1,inactive: 4.57%,–
COc1ccccc1CNc1ccc(-c2nc(-c3ccncc3)no2)cc1[N+](=O)[O-],–,"inconclusive: 100 µM [inhibitor, single point]"
CCOc1ccc(NC(=O)CSC2=Nc3ccccc3C3=NC(CC(=O)NCc4ccco4)C(=O)N23)cc1 (stereo not drawn),–,"inconclusive: 79.4 µM [inhibitor, single point]"
Cc1cc2ccccc2n1CCNC(=O)c1cccc(Cl)c1,inactive: -5.31%,–
COc1ccc(-c2noc(CSc3nnc(-c4ccncc4)n3-c3ccc(C)cc3)n2)cc1,–,"inconclusive: 70.8 µM [inhibitor, partial curve, poor fit]"
COc1cccc(CNC(=O)C2CCC(CNS(=O)(=O)c3ccc(Br)s3)CC2)c1 (stereo not drawn),inactive: -19.5% [at 57.5 µM],–
Oc1ccc(O)c([S+]2CCCCC2)c1,–,"inconclusive: 5.01 µM [inhibitor, partial curve, poor fit]"
CCOC(=O)c1c(C)[nH]c(C(=O)OC(C)C(N)=O)c1C (stereo not drawn),inactive: -1.73%,–

Structure (SMILES),"activity change, negative = inhibition",Potency
O=C(Nc1ccccc1)N(Cc1ccc(F)cc1)c1ccccn1,–,"inconclusive: 70.8 µM [inhibitor, single point]"
COc1ccc(-c2noc(CN(C(C)C)S(=O)(=O)c3ccc(Br)cc3)n2)cc1,–,"inconclusive: 100 µM [inhibitor, single point]"
CCOC(=O)c1c(C)[nH]c(C)c1S(=O)(=O)NCC(=O)N1CCN(c2cccc(C)c2)C(C)C1 (stereo not drawn),–,"inconclusive: 89.1 µM [inhibitor, single point]"
S=C1NC2(CCCCC2)N=C1c1ccc(Cl)cc1Cl,inactive: -1.64%,–
COc1ccc(CCNC(=O)c2c(C)oc3ncn(CC(C)C)c(=O)c23)cc1OC,–,"inconclusive: 79.4 µM [inhibitor, single point]"
O=C(Cc1ccc(Cl)cc1)NCC(c1cccs1)S(=O)(=O)c1ccc(F)cc1 (stereo not drawn),–,"inconclusive: 89.1 µM [inhibitor, single point]"
CCN(CC)S(=O)(=O)c1ccc2c(c1)N(CC(=O)Nc1ccc(C)cc1C)C(=O)C1CCCN21 (stereo not drawn),–,"inconclusive: 89.1 µM [inhibitor, single point]"
COc1ccc(N(Cc2cccs2)C(=O)COc2ccc(C(C)C)cc2)cc1,–,"inconclusive: 79.4 µM [inhibitor, partial curve, poor fit]"
CCOC(=O)N1CCC2(CC1)OC(=O)C(C)=C2C(=O)NCc1cccc(OC)c1,–,"inconclusive: 89.1 µM [inhibitor, single point]"
Cc1cc(NC(=O)Cn2nc(C)n3cccc3c2=O)ccc1Br,–,"inconclusive: 89.1 µM [inhibitor, partial curve, poor fit]"
COC(=O)c1cc(C)nc2c1c(=O)nc(SCc1c(C)cc(C)cc1C)n2C1CC1,–,"inconclusive: 79.4 µM [inhibitor, single point]"
N=C(N)c1cccc(OCc2cccnc2)c1,inactive: -5.51%,–
O=C(O)CSCc1cccc(Br)c1,inactive: 6.54%,–
CCC(CC)c1nn2cc(-c3ccccc3)nc2s1,–,"inconclusive: 25.1 µM [inhibitor, partial curve, poor fit]"
CCS(=O)(=O)N1CC(=O)N(c2ccc(C)c(C)c2)C(C)(C(=O)NC2CCCCCC2)C1 (stereo not drawn),–,"inconclusive: 89.1 µM [inhibitor, single point]"
CC(NC(=O)C1CC1)c1ccncc1 (stereo not drawn),inactive: 0.834%,–
Cc1nnc(NC(=O)CSCc2cc(=O)c3ccc(C)c(C)c3[nH]2)s1,–,"inconclusive: 39.8 µM [inhibitor, single point]"
CCN1c2ccccc2-c2nc(SCC(=O)Nc3cc(F)ccc3F)ncc2S1(=O)=O,–,"inconclusive: 56.2 µM [inhibitor, partial curve, poor fit]"
CCc1ccc(/C=C/C(=O)c2ccc(O)cc2)cc1,inactive: 4.95%,–
O=Cc1c(-c2ccc(Br)cc2)[nH]c2ccccc12,inactive: -1.39%,–
COc1cccc(C(=O)Nc2cccc(OCc3cc(=O)n4cccc(C)c4n3)c2)c1,–,"inconclusive: 100 µM [inhibitor, single point]"
Clc1ccc(-c2noc(-c3cccnc3N3CCN(c4ccccc4)CC3)n2)cc1,–,"inconclusive: 89.1 µM [inhibitor, single point]"

# Source: PubChem BioAssay AID1347430 (National Center for Advancing Translational Sciences (NCATS), 2020)
